# Experimental data reported in PubChem BioAssay AID488969 (Vanderbilt High Throughput Screening Facility, 2010).
# In all, about 110,000 compounds were measured (“z-score”: median about -0.1, highest 2% from about 2 on). The list shows a part of the results. The source made the active and inactive calls.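 How the source made its calls: active means z-score in the third read window above 3 or below -3; inactive means the rest.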 Residues, ends and D or L forms follow the SMILES beside them. *: point of attachment. Boc = CC(C)(C)OC(=O)*; Bn = c1ccc(C*)cc1
# Target: Metabotropic glutamate receptor 8 (Rattus norvegicus) (UniProt P70579)
# Sequence of UniProt P70579 (P70579 whole entry, looked up): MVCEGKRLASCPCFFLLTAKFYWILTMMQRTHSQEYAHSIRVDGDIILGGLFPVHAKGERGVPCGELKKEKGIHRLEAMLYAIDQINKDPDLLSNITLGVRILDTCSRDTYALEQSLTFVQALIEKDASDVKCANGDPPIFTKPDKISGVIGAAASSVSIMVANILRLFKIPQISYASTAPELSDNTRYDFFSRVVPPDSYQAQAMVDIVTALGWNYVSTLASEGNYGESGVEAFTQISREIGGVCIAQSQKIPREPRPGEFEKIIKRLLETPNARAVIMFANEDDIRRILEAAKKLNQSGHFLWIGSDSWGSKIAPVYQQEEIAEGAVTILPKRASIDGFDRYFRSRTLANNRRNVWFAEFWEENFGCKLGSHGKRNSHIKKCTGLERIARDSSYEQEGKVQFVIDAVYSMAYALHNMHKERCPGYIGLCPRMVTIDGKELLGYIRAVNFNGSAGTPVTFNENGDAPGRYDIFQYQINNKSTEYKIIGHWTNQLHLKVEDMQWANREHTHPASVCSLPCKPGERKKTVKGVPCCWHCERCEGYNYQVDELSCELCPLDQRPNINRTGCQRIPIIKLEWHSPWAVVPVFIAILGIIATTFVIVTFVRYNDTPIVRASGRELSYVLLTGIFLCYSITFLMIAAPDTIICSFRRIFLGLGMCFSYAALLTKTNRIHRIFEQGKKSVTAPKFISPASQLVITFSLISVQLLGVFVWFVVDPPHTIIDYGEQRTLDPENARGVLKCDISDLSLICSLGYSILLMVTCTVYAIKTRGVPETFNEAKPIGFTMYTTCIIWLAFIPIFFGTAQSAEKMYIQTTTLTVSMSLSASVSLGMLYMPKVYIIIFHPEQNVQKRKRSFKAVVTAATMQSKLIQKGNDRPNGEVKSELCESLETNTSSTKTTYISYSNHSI
# Test: rat mGluR8 modulators via GIRK flux, primary screen, cell-based, thallium flux, HTS (AID 488969)
# Details: HEK293 rat mGluR8, GIRK (G protein-gated inwardly rectifying potassium channel) thallium flux, FluoZin2; at 10 µM; stronger effect = higher value; submaximal glutamate (EC20) added with thallium
row,SMILES,z-score
1,Cc1cccc(CSc2nc3c(cc2C#N)CCC3)c1,0.361
2,CCOc1ccc2nc(NC(=O)CSc3ccccc3)sc2c1,0.162
3,COc1c(C(=O)N2CCCC2)ccc2ccccc12,0.264
4,Cc1ccnc(N/N=C/c2ccccc2)n1,-0.125
5,Cc1ccc(OCCCn2ccnc2)cc1C,-0.141
6,CCC(=O)OCc1c(C(F)(F)F)nn(C)c1Oc1cccc(C(F)(F)F)c1,-0.0999
7,CC1=NC(C)(C)Cc2ccccc21,0.785
8,OCCCNC(c1ccccc1)c1ccc(O)cc1 (stereo unspecified),0.266
9,CC1(C)CC(c2csc(N)n2)CCO1 (stereo unspecified),0.945
10,CC(=O)C1=C(C)NC(SCC(N)=O)=C(C#N)C1c1cccnc1 (stereo unspecified),-0.192
11,CC1SCC(=O)N(CC(=O)Nc2ccc3c(c2)OCO3)C1=O (stereo unspecified),0.433
12,Cc1noc(C)c1C(=O)N1CC(C)OC(C)C1 (stereo unspecified),-0.131
13,COc1ccc(-c2nn(CC(=O)N3CCCCC3)c(=O)c3ccccc23)cc1,-0.347
14,Cc1ccc(C(=O)Nc2ccc(Cc3ccncc3)cc2)cc1[N+](=O)[O-],-0.494
15,Cc1ccc2c(c1)C(O)(CC(=O)c1ccc3c(c1)OCO3)C(=O)N2 (stereo unspecified),-0.665
16,CC(C)(C)c1ccc(-c2nc(-c3ccncc3)no2)cc1,-0.17
17,Cc1nnc(NC(=O)c2ccc(C)c(S(=O)(=O)N3CCCCCC3)c2)s1,-0.461
18,O=C(NC1CCCCC1)c1cc(-c2ccco2)on1,0.0983
19,Cc1cccc(N2C(=O)CC(Sc3nc(C)cc(C)n3)C2=O)c1 (stereo unspecified),-0.715
20,CCOc1cc(/C=N/NC(N)=O)cc(Br)c1OCC(=O)Nc1cccc2ccccc12,0.109
21,CCOc1cccc(/C(O)=C2/C(=O)C(=O)N(CCOC)C2c2ccc(C)o2)c1 (stereo unspecified),-0.479
22,Cc1nn(Cc2ccccc2Cl)c(C)c1C(=O)NCc1ccco1,-0.88
23,O=C(COC(=O)CCc1ccc(S(=O)(=O)N2CCOCC2)cc1)NC1CCCC1,-0.187

row,SMILES,z-score
1,COc1ccc(Cl)cc1NC(=O)C1CCCN(c2cc(C)nc3ncnn23)C1 (stereo unspecified),-0.277
2,Nc1nc(SCC(=O)NCc2ccc(F)cc2)[nH]c(=O)c1NC(=O)c1ccc(Cl)cc1,-0.247
3,O=C(c1cc(-c2ccccc2)nc2ccccc12)N1CCCc2ccccc21,0.0801
4,O=C(NNC1=C(C(=O)C(F)(F)F)CCC1)c1ccc(Cl)cc1,0.28
5,CCOC(=O)C1(C(=O)OCC)CC1c1ccccc1 (stereo unspecified),-0.0513
6,COCc1[nH]nc2c1C(c1ccc(OC)c(OC)c1)C(C#N)=C(N)O2 (stereo unspecified),-0.328
7,COc1ccc(C2CC(=O)c3cnc(Nc4cc(C)cc(C)c4)nc3C2)cc1 (stereo unspecified),-0.184
8,COc1ccc(/C=N/NC(=O)Cc2csc(Nc3cccc(C(F)(F)F)c3)n2)c(OC)c1,-0.206
9,O=C(/C=C/Nc1ccc(F)cc1)c1cccs1,-0.329
10,COc1ccc(NS(=O)(=O)c2ccc(SC)cc2)cc1,0.376
11,CCCNC(=O)Cc1cc(=O)[nH]c(=O)[nH]1,-0.407
12,O=C(NCC1COc2ccccc2O1)c1ccc(NC(=O)C(c2ccccc2)c2ccccc2)cc1 (stereo unspecified),-0.203
13,CCCCn1c(=O)[nH]c(=O)c2c1nc(COc1ccc(C#N)cc1)n2CCC,-1.09
14,CC(=O)Nc1ccc(S(=O)(=O)NNC(=O)c2cccc3ccccc23)cc1,-0.252
15,O=C(O)CCS(=O)(=O)c1ccc(-c2ccccc2)cc1,-0.097
16,Cc1ccc(-n2c(SCC(=O)NCc3ccco3)nc3sc4c(c3c2=O)CC(C)(C)SC4)cc1,0.136
17,COc1ccc(-n2cnnc2SCc2cnc(-c3ccccc3)s2)cc1,-0.166
18,Cn1nc(C(=O)OCCN2C(=O)c3ccccc3C2=O)c2ccccc2c1=O,-0.305
19,CCCCNC(=O)CCn1c(=O)c2ccccc2n(Cc2ccc(F)cc2)c1=O,-0.407
20,COc1ccc(C2CC(C(F)(F)F)n3nc(C(=O)O)cc3N2)cc1OC (stereo unspecified),-0.555
21,COC(=O)C1=NNC2(c3ccc(Cl)cc3)C(=O)N(c3ccccc3)C(=O)C12 (stereo unspecified),0.137
22,COc1ccccc1NC(=O)/C(C#N)=C/c1c(C)nn(-c2ccc(F)cc2)c1Cl,-0.34
23,COc1ccc(-c2c(C)n([O-])c3c([n+]2=O)CCCC3)c(OC)c1,-0.0698

row,SMILES,z-score
1,NC(=O)c1cc(N2C(=O)C=CC2=O)ccc1Cl,0.151
2,O=C(OCc1cc2ccccc2[nH]c1=O)c1cccnc1,0.0651
3,CCOC(=O)Cc1csc(NC(=O)CC)n1,1.77
4,CC(=O)c1ccc(N2CCN(c3ncc(C(F)(F)F)cc3Cl)CC2)cc1,-0.556
5,CCOC(=O)c1cccc(NC(=O)CSc2nnc(-c3cccnc3)n2C)c1,active: -3.23
6,CCOC(=O)C1=C(C)OC(N)=C(C#N)C1c1ccc(OC)c(CSc2ccccn2)c1 (stereo unspecified),-0.156
7,CCCCn1c(CN2CCN(c3cccc(Cl)c3)CC2)nc2c1c(=O)[nH]c(=O)n2C,1.11
8,COC(=O)c1cn(CC(=O)NCc2ccco2)c2ccccc12,-0.134
9,COc1ccc(N2CSC3=C(C#N)C(c4cccs4)CC(=O)N3C2)cc1 (stereo unspecified),0.592
10,COc1ccc(CCN(C(=O)C(F)(F)F)C(C(=O)NC2CCCC2)c2cccs2)cc1OC (stereo unspecified),-0.0777
11,O=C(O)c1cc2cc(Cl)ccc2oc1=O,-0.216
12,CCC(C(=O)NCc1ccc(F)cc1)N(Cc1ccco1)C(=O)c1snc(C(N)=O)c1N (stereo unspecified),0.681
13,O=c1c2ccccc2c(-c2ccc(F)cc2)nn1-c1ccc(C(F)(F)F)cc1,-0.239
14,O=C(Nc1cc(S(=O)(=O)N2CCCC2)ccc1Cl)C1=COCCO1,0.333
15,O=C(c1ccc(Cl)c([N+](=O)[O-])c1)N(c1ccccn1)c1ccccn1,-0.225
16,Cc1ccc(-c2c[n+](Cc3ccc(Cl)c(Cl)c3)c3n2CCC3)cc1,-0.00717
17,O=c1oc2cc(O)ccc2c2ccccc12,-0.798
18,COc1ccc(C2C=C(c3ccc(C)cc3)Nc3ncnn32)cc1 (stereo unspecified),0.648
19,CC(C)(C)NC(=O)C12CC3CC(CC(Cl)(C3)C1)C2,0.0491
20,CCc1nnc(NCn2nc(C)cc2C)s1,-0.342
21,Cc1cccc(Sc2c([N+](=O)[O-])ncn2C)n1,-0.0664
22,CC(C)n1c(N2CCN(C(=O)Nc3ccc(F)cc3F)CC2)nc2ccccc21,-0.15
23,CC(C)(C)c1ccc(OCC(=O)N2CCN(C=O)CC2)cc1,-0.173

row,SMILES,z-score
1,CC1Cc2ccccc2N1C(=O)Cn1c(=O)cc(O)c2ccccc21 (stereo unspecified),-0.102
2,COc1ccc(N2CN=C3SCC(=O)N3C2)cc1,-0.13
3,NS(=O)(=O)c1ccc(NC(=S)NCc2ccccc2Cl)cc1,0.254
4,CC(C)(C)c1ccc(OCCNC(=S)NC(=O)c2cccnc2)cc1,0.327
5,CCCCn1nc(C(=O)N[C@@H](CCSC)c2nc3ccccc3[nH]2)c2ccccc2c1=O,-0.42
6,CCOc1ccc(NC(=O)CC2C(=O)N(C)C(=S)N2Cc2ccco2)cc1 (stereo unspecified),0.0726
7,CCOC(=O)c1cc2c(ccn2C)n1CC(=O)N1CCC(C)CC1,0.296
8,O=C(CN1CCN(c2ncc(C(F)(F)F)cc2Cl)CC1)Nc1ccc2c(c1)OCO2,-0.195
9,CCC(=O)Nc1nnc(SCC(=O)c2ccc3c(c2)Cc2ccccc2-3)s1,0.387
10,COc1ccc(OC)c(NC(=O)C2CC(=O)N(c3ccc(Br)cc3)C2)c1 (stereo unspecified),active: 3.63
11,COCCN1CCc2c(C)nc3c(-c4ccc(OC)c(OC)c4)cnn3c21,-0.678
12,CCCCNC(=O)CCNS(=O)(=O)c1ccc(C)cc1,1.22
13,CCOc1ccc2ncc(S(=O)(=O)c3ccc(C)cc3)c(N3CCC4(CC3)OCCO4)c2c1,-0.355
14,CC(C)CC(NC(=O)C(NC(=O)C(Cc1ccc(OCc2ccccc2)cc1)NC(=O)OC(C)(C)C)C(C)C)C(N)=O (stereo not drawn) (Boc-Tyr(Bn)-Val-Leu-NH2; configuration not given here),-0.0426
15,O=C(NCc1ccc(Cl)cc1)C(=O)NCC(c1ccco1)N1CCOCC1 (stereo unspecified),-2.15
16,CC(C)(C)c1ccc(C(=O)NCCC(=O)N2CCN(c3ncccn3)CC2)cc1,0.155
17,COc1ccccc1/C=C/C=N/NC(=O)c1ccc(=O)n(C)c1,-0.306
18,CCCn1cnc2cc(NCc3ccccn3)ccc21,-0.781
19,CC1(C(=O)N2CC3(CC(c4cccc([N+](=O)[O-])c4)=NO3)C[C@H]2C(=O)NCC(N)=O)CC1 (stereo partly specified),0.0464
20,CN(C)CC(=O)c1c[nH]c2ccccc12,-0.101
21,Brc1cccc(-c2nnc3n2CCC3)c1,-1.42
22,S=C(NCc1ccccn1)Nc1ccccc1Cl,-0.0105
23,CSc1nc(=S)n(Cc2ccccc2)c(C)c1C(C)=O,-0.182

row,SMILES,z-score
1,CC1=C(C(=O)Nc2ccccc2C)C(c2ccc(C)o2)NC(=S)N1 (stereo unspecified),0.728
2,CCOc1cc(C2C(C(=O)OC(C)C)=C(C)N=C3SCCC(=O)N32)ccc1OC(C)=O (stereo unspecified),0.00207
3,CCn1cc([N+](=O)[O-])c(C(=O)N2CCCC2)n1,-0.681
4,CCn1nc(C)c(NS(=O)(=O)c2ccccc2)c1C,0.21
5,COc1ccc(-c2nc3c(Br)c(N)c(Br)cc3o2)cc1,-0.19
6,CCN(CC)S(=O)(=O)c1cc(NS(=O)(=O)c2cccc(Cl)c2)ccc1C,-0.898
7,O=S(=O)(c1ccc2c(c1)OCCO2)N1CCN(Cc2ccc3c(c2)OCO3)CC1,-0.0889
8,Cc1cc(CSc2ccccc2)ccc1NC(=O)c1ccc(Br)cc1,0.213
9,COC(=O)C1(C)Nc2ccccc2C(=O)N1c1ccccc1C (stereo unspecified),0.875
10,Cc1cccc(NC(=S)NCc2ccco2)c1C,-0.0634
11,CCN(CC)CCN1C(=O)c2oc3ccccc3c(=O)c2C1c1ccccc1 (stereo unspecified),active: 3.81
12,CCOC(=O)CSc1nc(N)c(C#N)c(-c2cccs2)c1C#N,0.202
13,CCC(CC)NC(=O)c1ccccc1Oc1ccccc1,-0.739
14,COCCCNC(=O)c1ccc(N(C)S(C)(=O)=O)cc1,0.0312
15,O=C(Cc1c[nH]c2ccccc12)N/N=C/c1cccc(F)c1,-0.285
16,O=c1oc2ccccc2nc1/C=C(O)/C=C\c1ccccc1,-0.0618
17,CCCCN(CCCC)CP(=O)(c1ccccc1)c1ccccc1,1.14
18,Cc1cccc(CC2CC(=O)N(C3CCCCC3)C2=O)c1 (stereo unspecified),0.249
19,COc1ccc(S(=O)(=O)n2cnc3cc(C)c(C)cc32)cc1C,0.00762
